Assay results: the supplement of paper PMC11125491
± gives the standard deviation of the averaged measurements. Growth of baker's yeast expressing single-residue variants of Pneumocystis jirovecii dihydrofolate reductase in 8.8 or 44 µM methotrexate (about 75% and 90% inhibition of the wild type). Selection coefficient per generation; 0 = like wild type, above 0 = less sensitive, below 0 = more sensitive or loss of function. No active / inactive call per row; the paper calls resistant above 0.220 (8.8 µM) or 0.243 (44 µM) together with a significance test. At 44 µM about 15% of codons end with one read or none, so the lowest values are floors (replicate rank correlation 0.74; 0.94 at 8.8 µM).

B1: UniProt A0EPZ9; numbered along this chain (parent)
chain: MDWQKSLTLIVALTLSRGIGLKNDLPWKLKSDMMFFSRVTSGLLVTRSTGQMNVVLMGRKTWESLPAHSRPLKNRINVVISRQEVLDLGGGAYHARSLDDALALLSQIYDSTSKIQLNRVFVIGGGELCKAAMEHSRLNRIIATVIHNEVDCDVFFPIDFRSSQSCLPWRKQDHSVLEAWVGSKVPQGKINENGFIYEFEMWIRDI

Variants of: B1
Assay: selection coefficient against synonymous wild-type codons (log2 per generation); higher = faster growth than wild type
Conditions: with Saccharomyces cerevisiae carrying the variant on a plasmid
Method: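 Pooled growth of yeast carrying single-residue variants of P. jirovecii dihydrofolate reductase (own DFR1 gene intact), two passages at 30 °C, three cultures, sequenced before and after. Codons with under 15 starting reads are left out; codons of one change are averaged.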

Row | Variant | selection coefficient against synonymous wild-type codons (log2) (methotrexate 8.8 µM) | selection coefficient against synonymous wild-type codons (log2) (methotrexate 44 µM)
1 | T46N | 0.105 ± 0.012 | 0.0368 ± 0.035
2 | S64W | -0.492 ± 0.089 | -0.371 ± 0.096
3 | S64Q | -0.479 ± 0.16 | -0.231 ± 0.16
4 | S64C | -0.327 ± 0.065 | -0.164 ± 0.23
5 | S64R | -0.426 ± 0.08 | -0.294 ± 0.13
6 | R38V | -0.135 ± 0.041 | -0.0243 ± 0.089
7 | R38D | 0.202 ± 0.042 | 0.219 ± 0.033
8 | Y197F | -0.159 ± 0.054 | -0.218 ± 0.037
9 | Y197S | -0.139 ± 0.098 | -0.157 ± 0.1
10 | E178P | -0.383 ± 0.074 | -0.286 ± 0.13
11 | T61W | -0.56 ± 0.061 | -0.312 ± 0.068
12 | R75F | -0.605 ± 0.08 | -0.146 ± 0.042
13 | G124K | -0.628 ± 0.13 | -0.0327 ± 0.13
14 | E192L | -0.0621 ± 0.083 | -0.0967 ± 0.062
15 | V120W | -0.677 ± 0.039 | -0.329 ± 0.14
16 | I115S | -0.178 ± 0.092 | 0.0406 ± 0.016
17 | R161D | 0.37 ± 0.03 | 0.369 ± 0.061
18 | R161A | 0.158 ± 0.043 | 0.0737 ± 0.11
19 | P168T | -0.109 ± 0.061 | -0.217 ± 0.095
20 | E63W | -0.546 ± 0.035 | -0.256 ± 0.13
21 | E63N | -0.406 ± 0.13 | -0.158 ± 0.15
22 | E63K | -0.163 ± 0.33 | -0.0503 ± 0.3
23 | V85D | 0.114 ± 0.05 | 0.152 ± 0.017

Row | Variant | selection coefficient against synonymous wild-type codons (log2) (methotrexate 8.8 µM) | selection coefficient against synonymous wild-type codons (log2) (methotrexate 44 µM)
24 | P157T | -0.391 ± 0.13 | -0.286 ± 0.1
25 | P157N | -0.0368 ± 0.049 | -0.0862 ± 0.13
26 | P157H | -0.265 ± 0.1 | -0.144 ± 0.11
27 | S106I | -0.492 ± 0.094 | -0.186 ± 0.17
28 | S106V | -0.281 ± 0.066 | -0.0982 ± 0.21
29 | R59V | 0.171 ± 0.036 | 0.206 ± 0.05
30 | G182W | -0.46 ± 0.096 | -0.301 ± 0.42
31 | N193R | -0.104 ± 0.085 | -0.204 ± 0.16
32 | N193E | 0.00134 ± 0.026 | -0.00226 ± 0.025
33 | N193P | 0.0542 ± 0.082 | 0.102 ± 0.13
34 | L43N | 0.167 ± 0.049 | 0.19 ± 0.051
35 | S41Y | -0.189 ± 0.087 | -0.00764 ± 0.076
36 | F195L | 0.000991 ± 0.048 | -0.061 ± 0.062
37 | Q164L | -0.0186 ± 0.042 | -0.0758 ± 0.1
38 | Q164K | -0.0172 ± 0.039 | -0.0793 ± 0.036
39 | F199M | 0.258 ± 0.05 | 0.564 ± 0.061
40 | F199V | 0.426 ± 0.031 | 0.546 ± 0.047
41 | F199P | 0.73 ± 0.042 | 1.01 ± 0.038
42 | I76M | -0.439 ± 0.063 | -0.0817 ± 0.098
43 | S48V | -0.16 ± 0.039 | -0.0783 ± 0.095
44 | V154C | 0.0669 ± 0.051 | 0.0854 ± 0.088
45 | M33P | 1.12 ± 0.057 | 1.48 ± 0.034
46 | W180M | 0.0502 ± 0.01 | -0.0392 ± 0.14

Row | Variant | selection coefficient against synonymous wild-type codons (log2) (methotrexate 8.8 µM) | selection coefficient against synonymous wild-type codons (log2) (methotrexate 44 µM)
47 | K184E | -0.0148 ± 0.023 | -0.0139 ± 0.043
48 | K5T | 0.148 ± 0.15 | 0.191 ± 0.16
49 | K5M | 0.367 ± 0.037 | 0.373 ± 0.034
50 | R96M | -0.61 ± 0.034 | -0.246 ± 0.16
51 | R96S | -0.253 ± 0.13 | -0.153 ± 0.061
52 | R96K | 0.0316 ± 0.048 | 0.0774 ± 0.09
53 | R96I | -0.438 ± 0.099 | -0.391 ± 0.043
54 | L9W | 0.506 ± 0.0097 | 0.631 ± 0.023
55 | L9T | -0.205 ± 0.093 | -0.0623 ± 0.11
56 | V55F | -0.0976 ± 0.045 | 0.163 ± 0.098
57 | V55I | -0.166 ± 0.057 | -0.0277 ± 0.033
58 | L72V | 0.197 ± 0.061 | 0.235 ± 0.041
59 | S31V | -0.395 ± 0.11 | -0.263 ± 0.098
60 | L7G | -0.184 ± 0.055 | -0.148 ± 0.067
61 | V45R | 0.0466 ± 0.04 | 0.15 ± 0.087
62 | V45K | 0.119 ± 0.12 | 0.173 ± 0.078
63 | S6G | 0.425 ± 0.02 | 0.493 ± 0.039
64 | S6N | 0.683 ± 0.034 | 0.765 ± 0.047
65 | S6C | 0.0184 ± 0.055 | -0.0043 ± 0.029
66 | S6P | 0.16 ± 0.068 | 0.0758 ± 0.11
67 | P66Q | -0.112 ± 0.1 | -0.101 ± 0.18
68 | G91Q | 0.175 ± 0.049 | 0.287 ± 0.053
69 | G91Y | -0.0983 ± 0.039 | -0.113 ± 0.15

Row | Variant | selection coefficient against synonymous wild-type codons (log2) (methotrexate 8.8 µM) | selection coefficient against synonymous wild-type codons (log2) (methotrexate 44 µM)
70 | V181P | -0.566 ± 0.19 | -0.0676 ± 0.47
71 | V181A | 0.0672 ± 0.054 | -0.0195 ± 0.064
72 | V54R | -0.481 ± 0.053 | -0.233 ± 0.069
73 | A103D | 0.0726 ± 0.013 | 0.2 ± 0.022
74 | Q4E | -0.07 ± 0.023 | -0.0241 ± 0.067
75 | G188T | -0.138 ± 0.062 | -0.18 ± 0.2
76 | M201P | -0.00913 ± 0.074 | -0.0576 ± 0.092
77 | M52N | -0.114 ± 0.072 | -0.0913 ± 0.057
78 | T144H | -0.681 ± 0.21 | -0.321 ± 0.041
79 | T144N | 0.22 ± 0.28 | 0.393 ± 0.34
80 | A92V | -0.203 ± 0.086 | -0.201 ± 0.12
81 | S37I | -0.254 ± 0.069 | -0.14 ± 0.12
82 | A179L | -0.328 ± 0.11 | -0.348 ± 0.18
83 | A179D | 0.102 ± 0.032 | 0.0674 ± 0.036
84 | E134A | -0.0686 ± 0.03 | -0.0264 ± 0.14
85 | E134W | -0.537 ± 0.022 | -0.266 ± 0.14
86 | L98R | -0.729 ± 0.076 | -0.269 ± 0.045
87 | L98A | -0.608 ± 0.16 | -0.307 ± 0.088
88 | L15Q | 0.366 ± 0.013 | 0.357 ± 0.016
89 | R204I | -0.405 ± 0.086 | -0.388 ± 0.13
90 | R204V | -0.351 ± 0.062 | -0.277 ± 0.12
91 | S111M | -0.29 ± 0.13 | -0.221 ± 0.044
92 | D153G | 0.279 ± 0.045 | 0.286 ± 0.028

Row | Variant | selection coefficient against synonymous wild-type codons (log2) (methotrexate 8.8 µM) | selection coefficient against synonymous wild-type codons (log2) (methotrexate 44 µM)
93 | D153Q | 0.186 ± 0.037 | 0.191 ± 0.02
94 | R82A | -0.177 ± 0.039 | -0.262 ± 0.099
95 | V185S | -0.15 ± 0.078 | -0.188 ± 0.12
96 | S81G | -0.584 ± 0.12 | -0.265 ± 0.07
97 | I158A | 0.0723 ± 0.056 | -0.0427 ± 0.094
98 | I158N | 0.0501 ± 0.037 | -0.0312 ± 0.054
99 | P71I | 0.291 ± 0.035 | 0.344 ± 0.12
100 | N77V | 0.402 ± 0.051 | 0.621 ± 0.019
101 | F121H | -0.347 ± 0.086 | -0.177 ± 0.048
102 | F121D | -0.814 ± 0.035 | -0.309 ± 0.041
103 | F121Y | -0.06 ± 0.012 | 0.0515 ± 0.13
104 | K60Q | -0.0282 ± 0.081 | -0.0757 ± 0.12
105 | K60Y | -0.311 ± 0.07 | -0.171 ± 0.086
106 | F35T | 0.613 ± 0.033 | 0.726 ± 0.031
107 | E149R | -0.137 ± 0.065 | -0.212 ± 0.13
108 | E200D | 0.22 ± 0.064 | 0.18 ± 0.044
109 | E200I | 0.26 ± 0.038 | 0.237 ± 0.015
110 | E200G | 0.187 ± 0.055 | 0.104 ± 0.064
111 | E200H | 0.239 ± 0.017 | 0.232 ± 0.064
112 | L117G | -0.16 ± 0.016 | -0.149 ± 0.12
113 | L117E | -0.111 ± 0.063 | -0.165 ± 0.037
114 | I19T | 0.407 ± 0.058 | 0.446 ± 0.026
115 | Q51A | 0.00729 ± 0.035 | -0.0681 ± 0.12
